Results from the supplement of paper PMC3334620.
Over roughly 33,000 sequences, “E-score (-0.5 to 0.5)” has its median near -0.04; the highest 2% begin near 0.36. This is one part of the list.

What follows are sequences tested against T1, Hmlalpha2 (UniProt P0CY09) (assay: PBM E-score (8-mer binding enrichment) (E-score (-0.5 to 0.5)); higher = stronger / more preferred TF binding; most listed sequences are background and not binding sites). Conditions: protein concentration: 200 nM; construct: GST-full length.
T1 sequence: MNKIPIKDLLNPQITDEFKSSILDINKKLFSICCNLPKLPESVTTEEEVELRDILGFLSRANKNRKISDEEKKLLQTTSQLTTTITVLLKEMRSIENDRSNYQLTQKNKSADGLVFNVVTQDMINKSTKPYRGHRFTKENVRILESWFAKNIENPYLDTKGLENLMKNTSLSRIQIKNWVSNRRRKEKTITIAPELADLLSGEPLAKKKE
Summary of the method: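 Bound GST-tagged yeast transcription factors, applied at about 100-200 nM to double-stranded universal all-10-mer Agilent arrays, were detected with fluorescent anti-GST. Scans were normalised with masliner. A modified Wilcoxon-Mann-Whitney statistic, the E-score, was assigned to each ungapped eight-base word pooled with its reverse complement by the Universal PBM Analysis Suite.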

Sequence	PBM E-score
ACTCGTAA	0.187
ATCTGGCG	0.00932
GAGGCGGA	-0.292
CCAACAGC	-0.143
CCAGACAG	-0.175
TGGTGACA	0.087
ATCGCGAT	0.131
CGCTGGTC	-0.201
ATCTCTGG	-0.171
AGGTGTAA	0.317
CAAAGTGC	-0.151
GATCCTAC	-0.077
ACTCCCCT	-0.21
CGCCACAA	0.038
TCGCCACA	0.0514
ACGGGGGC	-0.271
CGTGATTC	-0.115
CCTTTGAA	-0.0803
CATAGTAA	0.303
TAGATCCA	-0.0367
CTGTGGCA	-0.115
GGGGCCGA	-0.332
ACTATCAC	0.033
AAGGTACT	0.178
ATGGCCTC	-0.299

Sequence	PBM E-score
AACCGAGC	-0.0678
AGTGCAAG	0.0766
AGCGAGTC	-0.136
GAGCGCCC	-0.29
CACAATTC	0.126
TACATAAA	0.369
GAGAATGC	0.0274
TCAATAGA	-0.158
ACAACGCC	0.182
CGGCCGAG	-0.0616
CCCCAAGC	-0.0543
CCTAGGGA	-0.159
GTGCGATA	-0.161
ATGACTTG	-0.0811
ACTATGTA	0.444
ATGACTGC	-0.135
GAGTGTGC	0.0117
CTGAACTC	-0.27
TCCTCCAA	-0.214
GCGTGAAA	0.156
ACTCCAAT	-0.194
AATACCCG	0.154
ATCTTCGA	-0.0503
CTGGCAAA	-0.187
GCCCACGA	-0.235

Sequence	PBM E-score
GAGTAAAA	0.237
ACTAAATG	0.045
CAGGAAGC	0.113
GCGTGCAA	0.0696
AAGCTGGG	-0.111
AAAACCGG	-0.0753
AGTGCCAC	-0.215
AGATGTCC	-0.135
CTAAGACC	-0.104
CTCCATAA	-0.0461
AAGTGCCG	0.00934
GCTGGACA	-0.16
AGAGCCAA	0.146
TGGGACCA	-0.0796
AAAAAACC	0.0318
CCGCGAGG	-0.209
CTCTTCGA	-0.0692
AGCGGACG	-0.202
AGTCTCCC	-0.235
CGCTGAAA	-0.0693
AGCTATAT	0.00915
GGGCGAGA	-0.26
GCCTCCTA	-0.285
TCAATTCA	0.0847
CCCTTCCC	-0.199

Sequence	PBM E-score
TAGCCTAA	-0.105
GAGGCGGC	-0.213
ACTGGTGC	-0.0311
GTAGGGAC	-0.0289
CATATGAG	-0.12
GGCAGGAA	-0.102
GTACGGTA	0.0183
ACCAAGAC	-0.0972
ATCCGAAA	-0.155
TCAGTTAA	0.135
ACTGCATG	0.235
TAAGCTTA	0.269
TTCAAAAA	0.0951
CCATCTGA	-0.104
CAAGCAAA	0.117
CACACATC	0.144
GTCGGACA	-0.0634
TGGAGACA	-0.153
AGGATATA	0.116
GCTTTAGA	-0.141
CCAGTGTA	0.183
ACAGCATG	0.168
AATAGCCT	-0.143
GGCGACCA	-0.23
GTAGAACA	0.169

Sequence	PBM E-score
GGCTGTTA	0.173
CGTCGTTA	-0.00484
AACTAATT	0.122
GCTTTCTA	0.155
CACACAAG	0.248
CAATGTTA	0.284
CGGGACAC	-0.119
ACCTCGCC	-0.31
AAAACTGG	-0.124
ACAGCACT	0.198
CGAAGCAC	-0.0778
TATACATA	0.445
ATGGTGAC	-0.18
AGGGACTA	-0.237
AATGATGG	0.0828
CAGAACTC	-0.14
AATTCCCG	0.159
CAAGAATG	-0.0486
GATAACAC	0.39
AGGTATCC	0.0371
ACATACAC	0.404
GTGCTGCA	-0.163
GGAGGAAA	-0.125
GCGTGCGA	-0.0602
GCTGACGA	-0.0654

Sequence	PBM E-score
CGTGAAAA	0.0977
CCCGGAGA	-0.219
ATCAGGGC	-0.195
CTTCATCA	-0.0341
CGATAGGC	-0.00026
CACAAGGA	0.139
ATAAAGCC	-0.233
GTTCGAGA	0.0922
AATTGCGG	-0.0237
ACTGGGGG	-0.418
CAGTAGAA	-0.0651
AACTTCCT	0.0594
GCGACGCC	-0.212
CGGGTGAC	-0.107
GCCGTCAC	-0.198
AGAATATG	0.0641
CTATTCTA	-0.0126
CGTTTACC	0.0999
GATCCAAC	-0.117
CTTACAAC	0.301
CTGAGCAG	0.0103
AACGCCGC	-0.00885
GTAGTAAC	0.165
CCCTATAG	-0.281
AAGAAGAC	-0.0184

Sequence	PBM E-score
CCCGATCA	-0.194
AACCCACA	0.0824
CAGAATTC	-0.092
GGACCGAC	-0.241
CACAGTGG	0.0645
GACCTGGC	-0.267
GATGTGCC	-0.334
GGGATAGA	-0.306
AACATGGA	0.346
AGTAACGG	-0.105
CGGCCCTC	-0.27
GGGATCAC	-0.195
AGGAGTAT	-0.053
CCGATAGC	-0.327
AGATAGCC	-0.18
ATCTTCTG	-0.0648
CGCAGACC	-0.241
CCCGACGC	-0.281
TACCCATA	-0.076
GCTAGCAC	-0.0845
CCTCCGCA	-0.147
GGGTGTGA	-0.13
